Measurements taken from article PMC6919601, “Identification of Plasmodium dipeptidyl aminopeptidase allosteric inhibitors by high throughput screening” (PLoS ONE, 2019).
Hit rate of the full screen: of about 110,000 compounds, about 230 (0.21%) showed an effect of 50% or more. The list shows a part of the results.

What follows are compounds tested against DPAP1 (Plasmodium falciparum, UniProt Q8IIJ9) (assay: primary screen, percent inhibition; read by cleavage of a fluorogenic dipeptide substrate; higher = more effect of the substance).
Design: species or system P. falciparum D10 trophozoite lysates; single well
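Further: 30 min substrate incubation versus DMSO and 10 µM JCP410 controls.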

DPAP1, sequence (Q8IIJ9 whole entry, looked up): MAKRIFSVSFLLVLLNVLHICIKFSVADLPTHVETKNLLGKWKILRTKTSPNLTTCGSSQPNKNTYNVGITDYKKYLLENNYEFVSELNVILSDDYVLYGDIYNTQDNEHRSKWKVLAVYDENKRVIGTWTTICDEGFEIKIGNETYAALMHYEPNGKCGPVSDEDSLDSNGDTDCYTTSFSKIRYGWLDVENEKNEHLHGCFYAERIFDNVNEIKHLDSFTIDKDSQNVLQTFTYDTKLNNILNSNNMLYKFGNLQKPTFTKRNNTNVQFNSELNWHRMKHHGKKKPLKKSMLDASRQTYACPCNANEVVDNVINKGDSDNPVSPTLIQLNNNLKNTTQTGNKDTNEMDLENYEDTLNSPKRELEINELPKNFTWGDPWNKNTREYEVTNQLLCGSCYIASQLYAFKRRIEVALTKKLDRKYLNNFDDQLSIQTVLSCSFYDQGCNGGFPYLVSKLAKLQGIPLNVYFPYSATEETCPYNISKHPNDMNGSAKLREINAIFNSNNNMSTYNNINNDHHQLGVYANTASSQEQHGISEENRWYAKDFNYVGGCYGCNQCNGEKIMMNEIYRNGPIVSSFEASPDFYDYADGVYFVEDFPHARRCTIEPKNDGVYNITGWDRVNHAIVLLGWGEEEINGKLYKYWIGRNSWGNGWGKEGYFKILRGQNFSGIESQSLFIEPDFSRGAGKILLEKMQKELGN

| SMILES | % Inhibition @ 10 uM |
| --- | --- |
| Cc1c(CNCCCc2ccccc2)c(C(=O)O)c(C)n1Cc1ccccc1 | -0.23% |
| CNS(=O)(=O)c1cn(CC(=O)NCCN2CCCCCC2)cc1S(=O)(=O)NC | -8.08% |
| Cc1ccc(Cl)cc1NC(=O)c1ccc(F)cc1 | 1.91% |
| Cc1ccc(C(=O)Nc2c(C(=O)NCc3ccccc3)cnn2-c2ccccc2)cc1 | 2.26% |
| COc1ccc(S(=O)(=O)N2CCSC2c2ccccc2)cc1 (stereo not shown) | 3.19% |
| N#CC1=C(N)Oc2cc(O)ccc2C1c1cccc(Cl)c1Cl (stereo not shown) | 3.54% |
| COc1cccc(C2=N/C(=C\c3cccc(OC)c3OC)C(=O)O2)c1 | -4.27% |
| COc1cccc(OC)c1-c1ccc(C(=O)N[C@@H](CC(C)C)C(=O)NCC#N)cc1 | -10.1% |
| COc1ccc(C2C(C#N)=C(N)Oc3cc(C)n(Cc4cccnc4)c(=O)c32)c(OC)c1OC (stereo not shown) | -1.38% |
| COc1cccc2c1OC(c1ccccc1F)N1N=C(c3ccccc3O)CC21 (stereo not shown) | -3.48% |
| Cc1cccc(NC(=O)CN2C(=O)S/C(=C\c3ccccn3)C2=O)c1 | -2.83% |
| CCOC(=O)c1c(C)sc(C(c2ccccc2)c2sc(C)c(C(=O)OCC)c2O)c1O | 0.776% |
| CCS(=O)(=O)N1CCC(C(=O)NCc2cc(OC)ccc2OC)CC1 | -4.83% |
| CN1CCC(N(C)Cc2ccoc2)CC1 | -2.56% |
| CCOc1ccc(CCNC(=O)c2cccs2)cc1OCC | 2.4% |
| O=C(CC1(O)OC(c2ccc(Cl)cc2)=CC1=O)c1ccc(Cl)cc1 (stereo not shown) | -0.807% |
| Cc1cccc(NC(=O)c2c(C(=O)O)cccc2[N+](=O)[O-])c1 | 5% |
| COc1ccc(C2=N/C(=C\C=C\c3ccccc3)C(=O)O2)cc1 | 7.01% |
| Cc1ccc(-c2cc(N)[nH]n2)cc1 | -2.88% |
| c1ccc(CN2CCN(Cc3ccsc3)CC2)cc1 | 0.847% |
| O=c1oc2ccc(Br)cc2cc1-c1csnn1 | 1.02% |
| Cc1ccc2oc(=O)c3cnn(CC(=O)N(CCCN4CCOCC4)Cc4ccco4)c3c2c1 | 7.66% |
| C=CCn1c(CCCO)nc2ccccc21 | 4.08% |
| CCOc1ccc(C2c3c(oc4ccccc4c3=O)C(=O)N2c2nnc(C)s2)cc1OCC (stereo not shown) | -6.23% |
| NC(=O)C1CCN(C(=O)C2CCCN(C(=O)c3cnn(-c4ccccc4)c3-n3cccc3)C2)CC1 (stereo not shown) | -1.58% |

| SMILES | % Inhibition @ 10 uM |
| --- | --- |
| Cc1ccc(C(=O)Nc2sc3c(c2C(N)=O)CCCCC3)o1 | -2.2% |
| CCC1CCCCN1S(=O)(=O)c1ccc(Cl)c([N+](=O)[O-])c1 (stereo not shown) | 4.61% |
| Cc1ccc(C)c(N(CC(=O)Nc2cccc(N(C)S(C)(=O)=O)c2)S(C)(=O)=O)c1 | -1.24% |
| O=C(NC1CCN(Cc2ccccc2)CC1)C1CCN(S(=O)(=O)c2cccc3cccnc23)CC1 | -1.54% |
| CC(C)CNS(=O)(=O)c1ccc(CCC(=O)Nc2cccc(C(F)(F)F)c2)cc1 | -2.8% |
| Fc1cccc(Cl)c1Cn1ncc2ccccc21 | 0.00706% |
| O=S(=O)(c1ccc(Cl)cc1)N1CCN(c2cccc(Cl)c2)CC1 | -1.62% |
| COc1cccc(OCCCc2c(C)n[nH]c2C)c1 | 1.9% |
| CCOC(=O)N1CCN(c2c(-c3ccc(Cl)cc3)c(=O)c2=O)CC1 | -3.84% |
| COc1ccc(CN(C(=O)c2cc(=O)c3cc(C)cc(C)c3o2)C2CCS(=O)(=O)C2)cc1 (stereo not shown) | 5.06% |
| CC1CC(C)CN(Cc2nc3c(c(=O)n(C)c(=O)n3C)n2Cc2c(F)cccc2Cl)C1 (stereo not shown) | -2.52% |
| CN(CCCNC(=O)Cn1ncc2c(=O)oc3ccccc3c21)Cc1ccccc1 | 5.58% |
| COc1ccc(/C=C2\N=C(c3ccc(F)cc3)OC2=O)c(OC)c1 | -5.41% |
| COc1ccc(CN(C(=O)COc2ccc(C)c(C)c2)C2CCS(=O)(=O)C2)cc1OC (stereo not shown) | 2.1% |
| CC1=CC2=NC(=O)/C(=C\c3ccc(C)o3)C(=N)N2O1 | 3.63% |
| Cc1ccc2c(CN(C)Cc3ccccc3)cc(=O)oc2c1 | -3.49% |
| COC(=O)c1cc(-c2ccccc2)nc2ccc(C)cc12 | -1.46% |
| O=c1c2sc3ccccc3c2n(Cc2ccccc2F)c(=O)n1Cc1ccco1 | -2.92% |
| Cc1ccc(C2CC(C(F)(F)F)n3ncc(C(=O)N4CCN(c5ccccc5)CC4)c3N2)cc1 (stereo not shown) | 2.53% |
| CC1CCCCN1S(=O)(=O)c1ccc(NC(=O)c2ccc(C(C)(C)C)cc2)cc1 (stereo not shown) | 0.0152% |
| Cc1ccccc1NC1(C#N)C(=O)Nc2ccccc21 (stereo not shown) | -7.09% |
| c1cncc(-c2nc(-c3c[nH]c4ccccc34)cs2)c1 | 2.51% |
| O=c1/c(=C/c2cccs2)sc2nc(-c3ccccc3Br)nn12 | 0.561% |
| COc1ccc(CCC(=O)Nc2ccc(C)cc2)cc1 | -1.44% |
| O=C(Nc1c2c(nn1-c1cccc(Cl)c1)CS(=O)(=O)C2)c1c(F)cccc1F | 4.23% |

| SMILES | % Inhibition @ 10 uM |
| --- | --- |
| Cc1cc(-c2noc(Cc3ccccc3)n2)c2ccccc2n1 | -0.403% |
| CCOc1ccc2nc(N3CCC(C(=O)N4CCN(C(=O)c5ccco5)CC4)CC3)sc2c1 | 3.4% |
| CCCn1c2ccccc2c2cnn(CC(=O)NCCCOC)c(=O)c21 | 3.95% |
| CCOC(=O)c1c(N)sc2c1CCC1(CCCCC1)C2 | 2.4% |
| Cc1cccn2c(=O)c(/C=C(\C#N)C(=O)N3CCOCC3)c(Oc3ccc(C(C)(C)C)cc3)nc12 | 2% |
| CCC(CC)C(=O)Nc1ccc(N(CC)CC)cc1 | 0.361% |
| CC(C)(C)C(=O)NCCCc1nc2ccccc2n1Cc1ccccc1F | 4.77% |
| O=C(Nc1cc(C(F)(F)F)ccc1Cl)C1CC(=O)N(c2ccc(Br)cc2)C1 (stereo not shown) | -12.1% |
| O=C(CN(Cc1ccccc1)S(=O)(=O)c1ccc2c(c1)OCCO2)Nc1ccc2c(c1)OCCO2 | -4.39% |
| CCOc1cc(CNCc2c(C(=O)O)[nH]c3cc(OC)ccc23)ccc1OC | 3.38% |
| COc1ccc(Cc2nn3c(Cc4ccccc4)nnc3s2)cc1 | 3.38% |
| COCC(C)NC1Cc2ccccc2C1 (stereo not shown) | 4.75% |
| CC(C)=C1C2C=CC1C1C(=O)N(c3cccc(C(=O)O)c3)C(=O)C21 (stereo not shown) | -2.56% |
| CC(Cc1ccccc1F)N1CCC(N2CCCCC2)CC1 (stereo not shown) | -6.62% |
| Cc1cccnc1NCc1ccc(O)c2ncccc12 | -15.4% |
| CCC(C)(CC)C(O)(C#CCN1CCCCC1)c1ccccc1 (stereo not shown) | -5.78% |
| COc1cc2c(cc1OC)CN(S(=O)(=O)c1cccc(F)c1)CC2 | -0.123% |
| CCn1c(-c2cccc(Br)c2)nc2ccccc21 | -4.07% |
| COc1ccc(-c2cc(-c3ccccc3)nc3sc(C(=O)NCC4CCCO4)c(N)c23)cc1 (stereo not shown) | 19% |
| CC(=O)Nc1ccc(NC(=O)CNS(=O)(=O)c2c(C)cc(C)cc2C)cc1 | 3.89% |
| Cc1cnc(NC(=O)c2sc3cc(Cl)ccc3c2Cl)s1 | -0.413% |
| C=CCC(C)(C)NC(C)c1ccccc1 (stereo not shown) | 0.385% |
| COc1ccc2sc(N(CCN(C)C)C(C)=O)nc2c1 | -4.44% |
| COc1cc(/C=C/C(=O)c2ccc(-c3ccccc3)cc2)c([N+](=O)[O-])cc1OC | 0.937% |
| CCC(NC(=O)[C@@H](C[C@H](C)c1ccccc1)NC(=O)c1ccc(-c2ccccc2Cl)cc1)C(=O)c1nc2ncccc2o1 (stereo partly shown) | -1.82% |

| SMILES | % Inhibition @ 10 uM |
| --- | --- |
| COc1cccc(C2=CC(c3ccccc3C)n3ncnc3N2)c1 (stereo not shown) | -1.62% |
| CCN1CNC(=S)N(C(C)c2ccccc2)C1 (stereo not shown) | -5.62% |
| O=S(=O)(c1ccc(Br)c2nsnc12)N1CCCCC1 | 2.58% |
| O=C(CSc1ccc2nnc(CCNS(=O)(=O)c3ccccc3)n2n1)NCc1ccccc1 | 2.22% |
| CCCc1nc2nc(C)c(N)c(O)n2n1 | -2.78% |
| CC(NC(=O)C(C)n1sc2ccccc2c1=O)c1ccc2c(c1)OCCO2 (stereo not shown) | 3.39% |
| O=C(Cc1ccc(Cl)cc1)NCc1ccc2c(c1)OCO2 | -0.641% |
| Cc1nn(CC(=O)NCC2CCCO2)c(=O)c2nn(-c3ccccc3)c(C)c12 (stereo not shown) | 5.3% |
| COCc1cccc(NC(=O)Cn2cnc3c(=O)n(C)c(=O)n(C)c32)c1 | -8.43% |
| CCC(C)c1ccccc1OCC(=O)Nc1cccc(C#N)c1 (stereo not shown) | -3.72% |
| CCOC(=O)N1CCC(NC(=O)C(Cc2ccccc2)NC(=O)c2ccco2)CC1 (stereo not shown) | 5.65% |
| COc1ccc(C2OC(c3ccc(S(=O)(=O)N4CCCCC4)cc3)=NN2C(C)=O)cc1 (stereo not shown) | -3.64% |
| N#CC1=C(N)OC2=C(C(=O)CCC2)C1c1c(F)cccc1Cl (stereo not shown) | -2.53% |
| CN1C(=O)C(=Cc2cccn2-c2ccc(Cl)cc2)C(=O)N(C)C1=O | -6.6% |
| CC1(C)CC(NC(=O)CN2CCCCC2)CC(C)(C)N1 | 0.162% |
| O=C(CSc1nccn1Cc1ccccc1)Nc1nccs1 | 1.57% |
| CCCCOc1ccc(CN2CCSCC2)cc1 | -5.42% |
| Cc1ccnc(NC(=O)c2cc3c(Cl)nc4ccccc4c3s2)c1 | 2.5% |
| CC(=O)NC(C)Cc1cn(Cc2ccccc2)c2ccccc12 (stereo not shown) | -3.5% |
| O=C(O)c1ccc(S(=O)(=O)Nc2cccnc2)cc1 | -9.16% |
| Cc1ccc(OCC(=O)Nc2ccc(Br)c(C)n2)cc1C | 0.605% |
| CC(Cc1cccc(C(F)(F)F)c1)NCC(C)(C)CN(C)C (stereo not shown) | 1.57% |
| Cc1ccc(C(=O)NC2CCCCC2)cc1S(=O)(=O)N1CCOCC1 | -4.27% |
| Cc1cccc(OCC(=O)Nc2cccc(Cl)c2)c1 | 12.7% |
| Oc1cc2ccccc2cc1-c1nc2c3c4c(sc3ncn2n1)CCCC4 | 9.39% |
